Assay results taken from publication PMC4336329 (PLoS ONE, 2015).
Screen size: about 310,000 compounds; about 2,200 (0.71%) showed an effect of 50% or more. The effect is printed as a negative number. This is one part of the list.

Target: human ether-à-go-go-related gene (hERG) potassium channel (human, UniProt Q12809)
Assay: primary screen, population patch clamp on CHO cells stably expressing hERG

Sequence of human ether-à-go-go-related gene (hERG) potassium channel (Q12809 whole entry, looked up): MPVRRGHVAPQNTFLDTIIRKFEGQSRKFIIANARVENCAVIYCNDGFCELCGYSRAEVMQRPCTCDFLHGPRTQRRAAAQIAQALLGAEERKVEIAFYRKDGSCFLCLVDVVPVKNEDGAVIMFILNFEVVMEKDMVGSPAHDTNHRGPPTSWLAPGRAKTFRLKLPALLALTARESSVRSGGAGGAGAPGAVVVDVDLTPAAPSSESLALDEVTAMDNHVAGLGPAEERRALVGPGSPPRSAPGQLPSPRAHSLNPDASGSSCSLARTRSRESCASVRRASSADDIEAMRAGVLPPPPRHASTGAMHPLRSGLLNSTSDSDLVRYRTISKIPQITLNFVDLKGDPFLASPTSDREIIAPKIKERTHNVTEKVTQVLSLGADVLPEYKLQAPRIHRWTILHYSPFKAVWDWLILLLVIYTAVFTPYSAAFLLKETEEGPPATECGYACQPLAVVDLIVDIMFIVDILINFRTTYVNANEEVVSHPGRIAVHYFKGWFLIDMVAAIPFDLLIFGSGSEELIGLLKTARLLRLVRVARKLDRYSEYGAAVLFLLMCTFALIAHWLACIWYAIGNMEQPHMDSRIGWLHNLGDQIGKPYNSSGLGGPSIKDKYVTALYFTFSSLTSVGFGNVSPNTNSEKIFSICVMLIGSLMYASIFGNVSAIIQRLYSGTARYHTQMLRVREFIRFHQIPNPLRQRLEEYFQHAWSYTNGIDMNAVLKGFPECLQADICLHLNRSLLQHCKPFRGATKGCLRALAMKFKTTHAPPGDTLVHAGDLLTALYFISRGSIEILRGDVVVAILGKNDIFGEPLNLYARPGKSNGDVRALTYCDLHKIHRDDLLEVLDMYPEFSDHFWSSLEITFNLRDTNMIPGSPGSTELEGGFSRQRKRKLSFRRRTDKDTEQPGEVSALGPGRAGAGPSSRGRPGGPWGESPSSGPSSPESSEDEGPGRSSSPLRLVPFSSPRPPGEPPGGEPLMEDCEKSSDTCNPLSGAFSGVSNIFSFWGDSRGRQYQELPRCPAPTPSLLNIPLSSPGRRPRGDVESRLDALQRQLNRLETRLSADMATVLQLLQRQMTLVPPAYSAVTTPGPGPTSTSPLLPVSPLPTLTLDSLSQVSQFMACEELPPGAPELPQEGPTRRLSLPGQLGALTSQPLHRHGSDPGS

| SMILES | hERG current change (%, negative = inhibition) at 1uM [%] |
| --- | --- |
| COc1ccc(NC(=O)C(=O)NCCN2CCN(C(=O)c3ccc(C)cc3)CC2)cc1 | -28.6 |
| CCOc1ccc(/C=N/OCC(=O)Nc2ccc(OCc3ccccc3)cc2)cc1OC | 11.4 |
| O=C(CC1Oc2ccccc2NC1=O)NC1CC1 (stereo not shown) | 3.9 |
| NS(=O)(=O)c1ccc(CCNC(=O)CN2CCN(Cc3cccc4ccccc34)CC2)cc1 | 8.33 |
| O=[N+]([O-])c1c(NCCCO)cc(N2CCN(Cc3ccc4c(c3)OCO4)CC2)c2nonc12 | -1.28 |
| COc1ccccc1NC(=S)N(Cc1ccccc1)Cc1ccccn1 | -0.144 |
| Cn1c(CN2CCOCC2)nnc1SCc1ccccc1 | -2.07 |
| Cc1ccc(/C=N/NC(=O)CN2CCN(S(=O)(=O)c3ccc(Br)cc3)CC2)s1 | -3.22 |
| Oc1c(CN2CCCCC2)cc(COCc2ccccc2)c2cccnc12 | 12.6 |
| CC(=O)Nc1ccc(Cl)c(-c2nc3ncccc3o2)c1 | 3.15 |
| Cc1ccc(C(=O)NCC(=O)NCCCc2ccccc2)s1 | 11.7 |
| COc1ccc(CC(=O)NCC2CCCN(Cc3ccc(OC(F)(F)F)cc3)C2)cc1 (stereo not shown) | -23.4 |
| CC(CN1CCOCC1)OC(=O)C(c1ccccc1)c1ccccc1 (stereo not shown) | 4.92 |
| CCOCCCNC(=O)C(NC(=O)c1cnccn1)c1ccc(C)cc1 (stereo not shown) | 21.5 |
| CC(C)(C)C(=O)/C(=C/c1ccc(Cl)cc1)n1cncn1 | 9.34 |
| N#Cc1ccc(NC(=O)CN2CCN(c3ccccn3)CC2)cc1 | -42.8 |
| COC(=O)c1sccc1-n1cccc1C(=O)C(=O)N1CCCC1 | 6.84 |
| CN(CC(=O)Nc1cccc(F)c1)C(=O)CSc1ccc(Br)cc1 | 5.81 |
| COC(=O)C1=C(C)N(Cc2ccccc2)C(=O)/C1=C\c1ccco1 | 9.3 |
| Cc1ccc(-c2cc(C(F)F)n3ncc(C(=O)N4CCN(c5ccccn5)CC4)c3n2)cc1 | 14.4 |
| CCN(CC(=O)Nc1ccccc1C(F)(F)F)C(=O)Cc1sc(C)nc1-c1ccc(F)cc1 | -14.1 |
| Cc1cc(Cl)ccc1C(=O)C1CCCN(C(=O)c2cncs2)C1 (stereo not shown) | 8.3 |
| COc1ccc(NC(=O)c2ccc[n+]([O-])c2)cc1 | 12 |

| SMILES | hERG current change (%, negative = inhibition) at 1uM [%] |
| --- | --- |
| COCCN(C(=O)CNC(=O)c1ccco1)C(C(=O)NC1CCCCC1)c1cccnc1 (stereo not shown) | 15 |
| Cc1ccc2c(c1)C(=O)C(=O)N2CC(=O)Nc1ccc(N2CCOCC2)cc1 | 4.39 |
| CC(C)(C)n1nc2c(c1NC(=O)c1cc3ccccc3o1)CS(=O)(=O)C2 | -5.51 |
| Cn1c(CNC(=O)CNC(=O)Cc2ccc(Cl)cc2)cc(=O)n(C)c1=O | 15.7 |
| CN(C(=O)CSc1nnc(-c2ccc3c(c2)OCO3)o1)C1CCS(=O)(=O)C1 (stereo not shown) | -8.12 |
| CC(=O)Nc1ccc(S(=O)(=O)NCCN2CCNC2=O)cc1Cl | 7.27 |
| CN(C)C(=O)c1cc(C(=O)c2ccc(Cl)cc2Cl)c[nH]1 | 12.2 |
| O=C1CC(c2nc3ccccc3[nH]2)CN1Cc1ccccc1 (stereo not shown) | 10.6 |
| Nc1c(Cl)cc(-c2[nH]c3cc(C(=O)NCCO)ccc3c(=O)c2O)cc1Cl | 12.4 |
| O=C(NNC(=O)c1cc2cc3ccccc3nc2s1)c1ccc(F)cc1 | 6.27 |
| Cc1nnc2c(-c3ccccc3)nc3ccccc3n12 | 9.33 |
| CC(=O)Nc1ccc(NC(=O)CSc2ccc3nnc(-c4cccnc4)n3n2)cc1 | 9.14 |
| CCN(CC)S(=O)(=O)c1ccc2c(c1)nc(CCC(=O)Nc1ccc3c(c1)OCO3)n2CC | 12.9 |
| Cc1ccc(O)c(NC(=O)COc2cc(C)ccc2C)c1 | -6.02 |
| CC(=O)OC/C=C(\C)CCC=C(C)C | 10.2 |
| COc1ccc2[nH]c3c(c2c1)CCN=C3C | -8.34 |
| CCOC(=O)C1=C(COC(=O)Cc2ccccc2F)NC(=O)NC1C (stereo not shown) | 15.5 |
| COc1ccc(C(=O)NC2CCN(C(=S)Nc3cccc(C)c3)CC2)cc1 | 1.55 |
| COc1ccc(S(=O)(=O)Nc2ccc3cn[nH]c3c2)cc1C | 15.4 |
| COc1ccc(CCN2C(=O)CC(Cc3cccc(C)c3)C2=O)cc1OC (stereo not shown) | 7.96 |
| O=C(Cn1cccc1C(=O)c1ccccc1)NCc1cccnc1 | 7.63 |
| COC(=O)CCS(=O)(=O)c1nc(-c2ccccc2)cc(C(F)(F)F)n1 | 3.29 |
| O.O=C(O)c1cc(S(=O)(=O)O)ccc1O | 15 |

| SMILES | hERG current change (%, negative = inhibition) at 1uM [%] |
| --- | --- |
| CC(=O)c1ccc(C#CC(C)(C)O)s1 | 14.3 |
| CCOC(=O)C1CCN(c2cc3c(cc2NC(=O)c2ccccc2OCC)n(C)c(=O)n3C)CC1 | 14.6 |
| COc1ccc(CCNC(=O)c2cc(C3CC3)on2)cc1OC | 14.5 |
| Fc1cccc(Cl)c1CSc1ncn[nH]1 | -1.27 |
| CN(C)CCNC(=O)COc1ccc(Cl)cc1Cl | 6.76 |
| COc1ccccc1N1CCN(/N=C/c2ccc(OC)c(OC)c2OC)CC1 | 8.28 |
| CCOc1ccc(NC(=O)c2nnn(CC(=O)Nc3ccccc3OC)c2N)cc1 | 9.46 |
| CCOC(=O)C(=CNc1cc(C)nn1-c1ccccc1)C(=O)OCC | 7.67 |
| COc1ccc(Cl)cc1NC(=O)COC(=O)CCNC(C)=O | 4.56 |
| COc1ccc(OC)c(-c2csc(CCn3nc(C)cc3C)n2)c1 | 10.6 |
| CC(=O)NC(c1cccs1)c1cc(F)c2cccnc2c1O (stereo not shown) | 15.9 |
| COCCNC(=O)CN1CCCCCC1.Cl | 14.1 |
| CCc1ccc(NC(=S)N2CCC(NC(=O)C3CCCCC3)CC2)cc1 | 16.4 |
| CCN1CCN(CC(=O)c2c[nH]c3ccc(C)cc23)CC1 | 14.9 |
| Cc1ccnc(SCc2cc(=O)c(OC(=O)c3ccccc3)co2)n1 | 15 |
| CCN(CC)CCOC(=O)c1cccc(Cl)c1.Cl | -1.37 |
| COc1cc(N)ccc1-c1cc2ccccc2oc1=O | 11.6 |
| O=C1C2C3C=CC(C4CC34)C2C(=O)N1Cc1ccco1 (stereo not shown) | 8.19 |
| COc1ccc(NC(=O)c2ccco2)cc1NC(=O)COc1ccccc1[N+](=O)[O-] | 7.06 |
| O=C(O)CC1(CC(=O)NCc2ccc(-c3cccs3)cc2)CCCCC1 | 12.8 |
| O=C(NCC12CC3CC(C1)CC(CNC(=O)N1CCCC1)(C3)C2)N1CCCC1 | -2.85 |
| COc1ccccc1C(=O)COC(=O)c1ccccc1O | 14.1 |
| NC(=O)CSc1oc(-c2ccco2)nc1S(=O)(=O)c1ccc(Br)cc1 | 7.85 |

| SMILES | hERG current change (%, negative = inhibition) at 1uM [%] |
| --- | --- |
| COc1cc(C(C)=O)ccc1Oc1cc(NN2CCCCC2)c([N+](=O)[O-])cc1[N+](=O)[O-] | -9.13 |
| O=C1NC(=Nc2ccccc2)S/C1=C/c1cccnc1 | 18.2 |
| CC(C)c1ccc(C2=NN(c3ccccc3)C(=O)CC2)cc1 | -4.22 |
| CCOP(=O)(CN(CC)CCNP(=O)(OCC)OCC)OCC | 5.28 |
| CN1CCN(C(=O)C2=C[C@H](c3ccc(Br)cc3)C[C@H](OCCCCO)O2)CC1 | -20.3 |
| COC(=O)c1cc(=O)n(Cc2ccc(OC)cc2)c(=NCc2ccc(OC)cc2)s1 | 9.52 |
| CC(C)c1nnc(NC(=O)CCS(=O)(=O)c2nc(-c3cccs3)cc(C(F)(F)F)n2)s1 | 14 |
| O=C1[C@H]2[C@@H](c3ccc(Cl)cc3)N3C(=O)N(c4cccc(F)c4)C(=O)[C@@]3(Cc3ccccc3)[C@H]2C(=O)N1C1CCCCC1 | 8.71 |
| O=C(NCc1cccc(Cl)c1)c1cnccn1 | -3.59 |
| O=C1NC2=C(C(=O)CCC2)C(c2ccc(OC(F)F)cc2)N1 (stereo not shown) | 7.69 |
| O=C(CCN1C(=O)C2C3C=CC(C3)C2C1=O)Oc1ccc2ccccc2c1 (stereo not shown) | -4.17 |
| CC(C)c1onc(C(=O)N2CCCCCC2)c1[N+](=O)[O-] | 11.8 |
| C=CCc1c(N(CC)CC)nc(C)[nH]c1=O | 7.81 |
| Nc1nc2n(c1C(=O)c1ccccc1)CCC2 | -7.79 |
| CCCCCCCCNC(=O)/C(C#N)=C/c1ccc(SC)cc1 | 7.94 |
| O=C(NCCCc1ccccc1)C1CCN(S(=O)(=O)c2ccc(F)cc2)CC1 | 9.86 |
| CCn1c(C(=O)OC)cc2c1ccn2-c1ccc(F)cc1 | 14.6 |
| CC(C)CNC(CC(=O)Nc1cccc([N+](=O)[O-])c1)C(=O)O (stereo not shown) | 12 |
| Cc1ccc(-n2c(O)c(C=Nc3ccc(S(N)(=O)=O)cc3)c(=O)[nH]c2=O)cc1 | 7.61 |
| CCOc1ccccc1N1CCN(Cc2cn[nH]c2-c2ccc(F)cc2)CC1 | -28.7 |
| Cc1ccc2nc3c(c(N)c2c1)CCN3c1ccccc1.O=C(O)C(=O)O | -2.46 |
| CCCc1ccc2oc(C(=O)N3CCCC3)c(C)c2c1 | 12.1 |
